In paper PMC4624480 (Biochemistry, 2015):

What was measured:
[1] = target: T1, ecMenE R195K (Escherichia coli, UniProt P37353, R195K); format: biochemical
[2] = target: ecMenE R195Q (Escherichia coli, UniProt P37353, R195Q); conditions: ITC
[3] = target: T1, ecMenE R195K; conditions: ITC

## O=C(O)CCC(=O)c1ccccc1C(=O)O [OSB, o-succinylbenzoate]
[1]; R195K ecMenE, substrate OSB
  kcat: 0.783 ± 0.0055 s⁻¹
[1]; R195K vs wild-type ecMenE
  decrease in kcat/KM compared to wild-type: 15 fold
  increase in KM for OSB: 16 fold
[1]; read-out: KM OSB, R195K ecMenE, pH 7.4, 25°C
  Km: 16 ± 1.4 µM

## Nc1ncnc2c1ncn2[C@@H]1O[C@H](COS(=O)(=O)NC(=O)CCC(=O)c2ccccc2C(=O)O)[C@@H](O)[C@H]1O [compound 1, OSB-AMS]
[2]; R195Q ecMenE
  ΔG: -7.3 kcal/mol
  ΔH: -3.1 ± 0.10 kcal/mol
[2]; R195Q vs wt ecMenE
  decrease in binding affinity (increase in Kd) relative to wild-type: 102 fold
  ΔΔG: 2.7 kcal/mol
[2]; read-out: Kd OSB-AMS, R195Q ecMenE
  Kd: 4500 ± 112 nM
[3]; R195K ecMenE
  ΔG: -8.8 kcal/mol
  ΔH: -2.5 ± 0.20 kcal/mol
[3]; R195K vs wt ecMenE
  decrease in binding affinity (increase in Kd) relative to wild-type: 9 fold
  ΔΔG: 1.2 kcal/mol
[3]; read-out: Kd OSB-AMS, R195K ecMenE
  Kd: 394 ± 36 nM
